Assay results reported in PubChem BioAssay (Tox21).
Where “and” joins values, the source holds several entries; their conditions need not be identical. Identical values can stand only once. Inconclusive means that the source gave no clear call. Such entries were picked first, then a sample of the others. For some of these results: Where the call is inconclusive, the potency comes from a doubtful curve fit. Calls of active or inactive are those of the source. Unless noted, calls follow the shape of the dose curve; as a rule, active = well fitted curve in the direction sought with a large enough effect in the repeat runs; inconclusive = weak or mixed curves; inactive = no such curve, though single readings can be large; an effect the other way counts as inactive or inconclusive.

Experiments:
[1] = qHTS assay to identify small molecule agonists of the hypoxia (HIF-1) signaling pathway (AID 1224846; active = well fitted activation curve with a large enough effect in the signal ratio in the repeat runs, not every such curve was filed as active; inconclusive = weak or mixed curves; the % refers to the signal ratio; also: potency is read from the fitted curve at half-maximal effect; as to activation: % is scaled to controls: 0 for no effect and ±100 for the full control effect); conditions: HRE-bla ME-180 cells, beta-lactamase ratio, 17 h; activation: at 76.8 µM (top of the series) unless noted
Outline: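 A low-serum medium (0.5% dialyzed FBS) holding 2,000 HRE-bla ME-180 cells per well is preincubated for 5 hrs, dosed with compounds by pintool, and kept a further 17 hrs at 37C, 5% CO2 before CCF4-AM FRET detection of beta-lactamase.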

[2] = qHTS assay to identify small molecule agonists of H2AX - cell viability counter screen (AID 1224847; calls by dose curve; also: potency is read from the fitted curve at half-maximal effect; nearly all actives have a fitted effect of over 30% in size)
Outline: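 CHO-K1 wt, 1000 cells/well, o/n 37C; cpds 15 conc, 3 h 37C, 0.76% DMSO; CellTiter-Glo, 30 min RT, luminescence.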

[3] = qHTS RealTime-Glo MT Cell Viability Assay in HEK293 cells - 32 hour (AID 1224868); also: nearly all actives have a fitted effect of over 50% in size; also: potency is read from the fitted curve at half-maximal effect
Outline: (§1)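 Cells + reagent dispensed (600 cells/well, HEK293) → 5 h at 37 C/5% CO2 → 23 nL compound in DMSO pinned → 40 h at 37 C → luminescence read at 0, 8, 16, 24, 32, 40 h.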

[4] = A CellTox Green Cytotoxicity Assay to monitor cytotoxicity in HEK293 cells - 40 hour (AID 1224871); also: nearly all actives have a fitted effect of over 45% in size; also: potency is read from the fitted curve at half-maximal effect
Outline: (§2)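 Fluorescence intensity, read at 0, 8, 16, 24, 32 and 40 h of compound treatment, reflected dye binding to DNA of dead HEK293 cells; compounds (23 nL, DMSO) were added 5 h after plating cells with reagent.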

[5] = qHTS RealTime-Glo MT Cell Viability Assay in HEK293 cells - 16 hour (AID 1224872); also: nearly all actives have a fitted effect of over 50% in size; also: potency is read from the fitted curve at half-maximal effect
Outline: as §1

[6] = qHTS RealTime-Glo MT Cell Viability Assay in HEK293 cells - 40 hour (AID 1224874); conditions: RealTime-Glo luminescence; max response: stronger effect = lower value; also: potency is read from the fitted curve at half-maximal effect; nearly all actives have a fitted effect of over 50% in size
Outline: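 Viable HEK293 cells reduce a cell-permeant prosubstrate; the product diffuses out and is consumed by NanoLuc in the medium to give light. Compounds went in after a 5 h incubation and plates were read over the treatment course.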

[7] = A CellTox Green Cytotoxicity Assay to monitor cytotoxicity in HEK293 cells - 24 hour (AID 1224875); also: potency is read from the fitted curve at half-maximal effect; nearly all actives have a fitted effect of over 45% in size
Outline: as §2

[8] = A CellTox Green Cytotoxicity Assay to monitor cytotoxicity in HepG2 cells - 24 hour (AID 1224878); also: nearly all actives have a fitted effect of over 45% in size; also: potency is read from the fitted curve at half-maximal effect; as to Cytotoxicity: % is scaled to controls: 0 for no effect and ±100 for the full control effect
Outline: (§3)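 Using 1536-well format, dye-containing HepG2 suspension was seeded, allowed 5 h at 37 C/5% CO2, dosed by pintool with compounds, positive and negative controls, and imaged for fluorescence across 40 h.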

[9] = A CellTox Green Cytotoxicity Assay to monitor cytotoxicity in HEK293 cells - 32 hour (AID 1224881); also: potency is read from the fitted curve at half-maximal effect; nearly all actives have a fitted effect of over 40% in size
Outline: as §2

[10] = qHTS assay to identify small molecule antagonists of the estrogen related receptor (ERR) signaling pathway from Tox21 library (AID 1224848); also: potency is read from the fitted curve at half-maximal effect; nearly all actives have a fitted effect of over 50% in size
Outline: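 Luminescent reporter read-out (ONE-Glo) from NTP's ERR cell line after 18 h treatment at 37 C with DMSO-dissolved Tox21 compounds; cells pre-plated 6 h beforehand at 2,000 per well.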

[11] = qHTS RealTime-Glo MT Cell Viability Assay in HepG2 cells - 24 hour (AID 1224867); also: nearly all actives have a fitted effect of over 50% in size; also: potency is read from the fitted curve at half-maximal effect
Outline: (§4)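 Real-time, nonlytic viability: 600 HepG2 cells/well mixed with NanoLuc enzyme plus prosubstrate; 5 h settle, compound (DMSO) added by pintool; luminescence monitored over 40 h at 37 C.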

[12] = qHTS RealTime-Glo MT Cell Viability Assay in HepG2 cells - 8 hour (AID 1224873); also: nearly all actives have a fitted effect of over 55% in size; also: potency is read from the fitted curve at half-maximal effect
Outline: (§5)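 HepG2 cells (600/well) mixed with RealTime-Glo MT reagent, settled 5 h at 37 C/5% CO2 before compound addition. Nonlytic NanoLuc luminescence from viable-cell prosubstrate reduction read repeatedly during 40 h treatment at 37 C.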

[13] = A CellTox Green Cytotoxicity Assay to monitor cytotoxicity in HepG2 cells - 40 hour (AID 1224879); also: nearly all actives have a fitted effect of over 40% in size; also: potency is read from the fitted curve at half-maximal effect
Outline: as §3

[14] = qHTS assay to identify small molecule agonists of the estrogen related receptor (ERR) signaling pathway from Tox21 library (AID 1224849; calls by dose curve; also: % is scaled to controls: 0 for no effect and ±100 for the full control effect; nearly all actives have a fitted effect of over 15% in size); conditions: ERR reporter cell line, ONE-Glo luciferase, 18 h
Outline: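 Screening used an NTP-provided ERR luciferase cell line. Compounds in DMSO were added 6 h after seeding and left 18 h at 37 C before a 30 min ONE-Glo step and luminescence reading.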

[15] = qHTS RealTime-Glo MT Cell Viability Assay in HepG2 cells - 40 hour (AID 1224870)
Outline: as §5

[16] = A CellTox Green Cytotoxicity Assay to monitor cytotoxicity in HepG2 cells - 16 hour (AID 1224876); also: potency is read from the fitted curve at half-maximal effect; nearly all actives have a fitted effect of over 45% in size
Outline: as §3

[17] = qHTS RealTime-Glo MT Cell Viability Assay in HepG2 cells - 32 hour (AID 1224877); also: potency is read from the fitted curve at half-maximal effect; nearly all actives have a fitted effect of over 55% in size
Outline: as §4

[18] = A CellTox Green Cytotoxicity Assay to monitor cytotoxicity in HEK293 cells - 0 hour (AID 1224869)
Outline: as §2
Tags tell the direction and shape of the fitted curve or compound fluorescence and quenching.

For `CC(C)OC(=O)c1cc(C(=O)OC(C)C)cc([N+](=O)[O-])c1`, which Potency [1] is on record?
The Potency was “inactive”.

What about the Potency [2] of the same compound?
Its Potency is inconclusive: 116 µM [cytotoxic].

And the Potency [3]?
Its Potency is inconclusive: 44.7 µM [cytotoxic, partial curve, poor fit].

And the Potency [4]?
Its Potency is inconclusive: 63.1 µM [activator, partial curve, poor fit].

What about the Potency [5] of the same compound?
Its Potency is inconclusive: 22.4 µM [cytotoxic].

What about the Potency [6] of the same compound?
The Potency was inconclusive: 63.1 µM [cytotoxic, partial curve, poor fit].

And the Potency [7]?
The Potency was inconclusive: 63.1 µM [activator, partial curve, poor fit].

What about the Potency [8] of the same compound?
The Potency was inconclusive: 22.4 µM [activator, single point].

And the Potency [9]?
Its Potency is inconclusive: 63.1 µM [activator, partial curve, poor fit].

Which Potency [1] does the source give for `O=C1OC2(c3cc(Br)c(O)c(Br)c3Oc3c2cc(Br)c(O)c3Br)c2c(Cl)c(Cl)c(Cl)c(Cl)c21` here?
The Potency was inconclusive: 55 µM.

And the Potency [2]?
Its Potency is inconclusive: 34.4 µM [cytotoxic, partial curve].

And the Potency [10]?
The Potency was inconclusive: 27.3 µM [inhibitor, partial curve].

What about the Potency [11] of the same compound?
The Potency was “inactive”.

And the Potency [3]?
The Potency was inconclusive: 55 µM [cytotoxic, single point].

What about the Potency [5] of the same compound?
Its Potency is inconclusive: 49.1 µM [cytotoxic, partial curve].

What about the Potency [12] of the same compound?
Its Potency is inconclusive: 55 µM [falling, single point].

And the Potency [6]?
Its Potency is inconclusive: 55 µM [cytotoxic, single point].

What about the Potency [9] of the same compound?
The Potency was active: 4.91 µM and active: 26.5 µM.

Which results are given for `CCCCCCCCCCCCCC[n+]1ccccc1`?
Potency [1]: inconclusive: 43.6 µM [falling, partial curve]; Potency [10]: active: 1.37 µM; Potency [8]: active: 15.5 µM; Potency [13]: active: 11 µM

With `Cc1ccc(O)c(-n2nc3ccccc3n2)c1` as the compound, how does the Potency [1] read?
Its Potency is “inactive”.

And the activity change, positive = activation ([14]; at 42.5 µM (top of the series))?
Its activity change, positive = activation is active: 147%.

And the activity change, positive = activation ([14]; at 92.4 µM (top of the series))?
Its activity change, positive = activation is active: 109% and active: 139%.

And the Potency [4]?
The Potency was inconclusive: 38.9 µM [activator, partial curve].

And the Potency [5]?
The Potency was inconclusive: 24.5 µM [cytotoxic, partial curve, poor fit].

What about the Potency [8] of the same compound?
Its Potency is inconclusive: 54.5 µM [activator, partial curve, poor fit].

And the Potency [13]?
The Potency was inconclusive: 54.5 µM [activator, single point].

What about the Potency [9] of the same compound?
Its Potency is inconclusive: 38.9 µM [activator, partial curve, poor fit].

Which Potency [1] does the source give for `CN1CCN(N)CC1` here?
The Potency was inconclusive: 10.7 µM [activator, single point].

What about the Potency [3] of the same compound?
Its Potency is “inactive”.

Which Potency [1] does the source give for `O=c1[nH]sc2cc(Cl)ccc12` here?
Its Potency is inconclusive: 26.8 µM.

And the Potency [15]?
The Potency was inconclusive: 26.8 µM [falling, single point].

What about the Potency [5] of the same compound?
The Potency was inconclusive: 26.8 µM [cytotoxic, single point].

And the Potency [6]?
The Potency was inconclusive: 26.8 µM [cytotoxic, single point].

And the Potency [16]?
Its Potency is inconclusive: 26.8 µM [activator, single point].

What about the Potency [17] of the same compound?
The Potency was inconclusive: 26.8 µM [cytotoxic, partial curve, poor fit].

And the Potency [8]?
Its Potency is inconclusive: 26.8 µM [activator, partial curve, poor fit].

What about the Potency [13] of the same compound?
The Potency was inconclusive: 26.8 µM [activator, partial curve, poor fit].

Which Potency [1] does the source give for `CCCCCCOC(C)=O` here?
The Potency was inconclusive: 19.5 µM [rising, partial curve].

What about the Potency [3] of the same compound?
The Potency was “inactive”.

What does the source list for `CNS(=O)(=O)c1cc(C(=O)N2CCC(CCN3C4CCC3CC(n3c(C)nc5ccccc53)C4)(c3cccc(F)c3)CC2)c(Cl)cc1F` (stereo unspecified)?
Potency [1]: inconclusive: 2.75 µM [rising, full curve]; Potency [11]: inconclusive: 19.5 µM [falling, partial curve]; Potency [3]: active: 5.49 µM; Potency [15]: inconclusive: 24.5 µM [falling, partial curve]; Potency [5]: active: 4.36 µM; Potency [17]: inconclusive: 21.9 µM [cytotoxic, partial curve]

Which results are given for `CCCC1C(CC)=CC(CC)=CN1c1ccccc1` (stereo unspecified)?
Potency [1]: inactive; Potency [3]: active: 13.8 µM; Potency [5]: active: 15.5 µM; Potency [12]: inactive

Which Potency [1] does the source give for `CC(C)=CCC1C(=O)N(c2ccccc2)N(c2ccccc2)C1=O` here?
The Potency was inconclusive: 10.7 µM [rising, full curve].

And the Potency [5]?
The Potency was “inactive”.

With `C=C[Si](OC(=C)C)(OC(=C)C)OC(=C)C` as the compound, how does the Potency [1] read?
Its Potency is “inactive”.

And the Potency [4]?
Its Potency is “inactive”.

What about the Potency [16] of the same compound?
Its Potency is inconclusive: 54.9 µM [activator, partial curve, poor fit].

What about the Potency [13] of the same compound?
Its Potency is “inactive”.

What does the source list for `COC(=O)c1ccc(O)cc1`?
Potency [1]: inactive; Potency [18]: inactive; Potency [8]: inactive
